Source: publication PMC6092318, “Keap1–MCM3 interaction is a potential coordinator of molecular machineries of antioxidant response and genomic DNA replication in metazoa” (Scientific Reports, 2018)
These are yes or no findings as the source states them, for the method shown. For part of these data: In cells and extracts the contact can be indirect. Some results given as binding are weak or reduced against the parent protein; the word gives no strength. For part of these data: Where a sequence is shown, tags or fusion partners need not be part of it.

Protein sequences, listed by entry. Tags and fused reporters are not part of them. Lines headed by an entry give the natural chain unless they say otherwise; changes in a name come on top.
UniProt Q9Z2X8: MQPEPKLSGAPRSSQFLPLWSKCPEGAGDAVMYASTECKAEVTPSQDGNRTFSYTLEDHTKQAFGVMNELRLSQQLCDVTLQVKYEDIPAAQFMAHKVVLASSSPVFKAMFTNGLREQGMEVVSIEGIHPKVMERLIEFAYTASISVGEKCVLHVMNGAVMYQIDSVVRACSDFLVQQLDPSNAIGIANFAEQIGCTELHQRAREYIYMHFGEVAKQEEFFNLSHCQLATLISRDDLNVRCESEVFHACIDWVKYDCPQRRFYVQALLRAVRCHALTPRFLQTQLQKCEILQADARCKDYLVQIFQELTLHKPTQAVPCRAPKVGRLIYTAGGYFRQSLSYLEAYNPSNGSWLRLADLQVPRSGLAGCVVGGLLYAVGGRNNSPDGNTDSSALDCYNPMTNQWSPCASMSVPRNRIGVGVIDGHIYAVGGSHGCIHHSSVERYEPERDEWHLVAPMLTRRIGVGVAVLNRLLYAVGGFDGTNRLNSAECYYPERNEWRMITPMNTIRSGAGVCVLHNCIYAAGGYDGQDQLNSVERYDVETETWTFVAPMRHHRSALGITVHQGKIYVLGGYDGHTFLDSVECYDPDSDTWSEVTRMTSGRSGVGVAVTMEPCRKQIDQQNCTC
UniProt P97310: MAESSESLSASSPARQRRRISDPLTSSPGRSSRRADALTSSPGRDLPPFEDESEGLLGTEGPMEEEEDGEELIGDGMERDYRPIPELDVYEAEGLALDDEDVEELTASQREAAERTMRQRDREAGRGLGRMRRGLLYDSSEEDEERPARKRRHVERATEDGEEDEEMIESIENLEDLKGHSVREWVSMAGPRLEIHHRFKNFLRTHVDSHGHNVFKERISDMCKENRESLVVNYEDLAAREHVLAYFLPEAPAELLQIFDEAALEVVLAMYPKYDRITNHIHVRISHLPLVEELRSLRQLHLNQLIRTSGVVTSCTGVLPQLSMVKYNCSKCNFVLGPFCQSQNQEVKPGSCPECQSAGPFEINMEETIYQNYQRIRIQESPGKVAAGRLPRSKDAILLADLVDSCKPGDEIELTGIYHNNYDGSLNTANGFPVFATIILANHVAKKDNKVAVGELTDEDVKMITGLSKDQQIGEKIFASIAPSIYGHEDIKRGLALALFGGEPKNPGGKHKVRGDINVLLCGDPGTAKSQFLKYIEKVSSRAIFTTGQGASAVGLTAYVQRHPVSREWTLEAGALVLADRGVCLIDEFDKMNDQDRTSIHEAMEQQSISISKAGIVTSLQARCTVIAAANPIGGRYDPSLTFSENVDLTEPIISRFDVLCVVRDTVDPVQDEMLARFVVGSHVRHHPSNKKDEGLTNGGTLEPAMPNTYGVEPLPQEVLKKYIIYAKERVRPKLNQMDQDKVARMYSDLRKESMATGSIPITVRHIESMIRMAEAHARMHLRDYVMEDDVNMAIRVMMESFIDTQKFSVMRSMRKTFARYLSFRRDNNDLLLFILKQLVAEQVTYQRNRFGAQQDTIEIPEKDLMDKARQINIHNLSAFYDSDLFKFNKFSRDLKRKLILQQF
UniProt Q14145: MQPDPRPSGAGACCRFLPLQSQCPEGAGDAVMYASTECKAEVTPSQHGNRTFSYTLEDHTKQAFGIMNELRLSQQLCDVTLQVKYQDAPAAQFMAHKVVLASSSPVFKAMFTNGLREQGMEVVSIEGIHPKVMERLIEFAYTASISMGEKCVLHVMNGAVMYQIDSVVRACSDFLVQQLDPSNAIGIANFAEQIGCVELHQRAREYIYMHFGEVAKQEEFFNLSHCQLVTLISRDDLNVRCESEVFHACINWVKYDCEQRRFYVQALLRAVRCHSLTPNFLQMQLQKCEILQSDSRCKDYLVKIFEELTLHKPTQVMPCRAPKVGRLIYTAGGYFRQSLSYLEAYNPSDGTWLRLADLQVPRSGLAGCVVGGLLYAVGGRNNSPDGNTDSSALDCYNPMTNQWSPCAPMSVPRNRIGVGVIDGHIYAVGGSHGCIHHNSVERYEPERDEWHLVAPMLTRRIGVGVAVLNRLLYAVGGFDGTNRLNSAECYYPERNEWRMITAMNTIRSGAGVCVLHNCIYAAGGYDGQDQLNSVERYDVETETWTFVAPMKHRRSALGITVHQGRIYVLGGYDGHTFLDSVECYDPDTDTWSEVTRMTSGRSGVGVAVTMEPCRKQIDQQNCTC

Experiments:
[1] = molecular target: T1, FLAG-MCM3 (mouse, wild type, baculovirus) (mouse) (UniProt P25206); experiment: SEC; MCM2-7 from baculovirus co-expression in Sf9 cells, size exclusion chromatography profile (Supplementary Fig. S7); details not shown
T1 sequence: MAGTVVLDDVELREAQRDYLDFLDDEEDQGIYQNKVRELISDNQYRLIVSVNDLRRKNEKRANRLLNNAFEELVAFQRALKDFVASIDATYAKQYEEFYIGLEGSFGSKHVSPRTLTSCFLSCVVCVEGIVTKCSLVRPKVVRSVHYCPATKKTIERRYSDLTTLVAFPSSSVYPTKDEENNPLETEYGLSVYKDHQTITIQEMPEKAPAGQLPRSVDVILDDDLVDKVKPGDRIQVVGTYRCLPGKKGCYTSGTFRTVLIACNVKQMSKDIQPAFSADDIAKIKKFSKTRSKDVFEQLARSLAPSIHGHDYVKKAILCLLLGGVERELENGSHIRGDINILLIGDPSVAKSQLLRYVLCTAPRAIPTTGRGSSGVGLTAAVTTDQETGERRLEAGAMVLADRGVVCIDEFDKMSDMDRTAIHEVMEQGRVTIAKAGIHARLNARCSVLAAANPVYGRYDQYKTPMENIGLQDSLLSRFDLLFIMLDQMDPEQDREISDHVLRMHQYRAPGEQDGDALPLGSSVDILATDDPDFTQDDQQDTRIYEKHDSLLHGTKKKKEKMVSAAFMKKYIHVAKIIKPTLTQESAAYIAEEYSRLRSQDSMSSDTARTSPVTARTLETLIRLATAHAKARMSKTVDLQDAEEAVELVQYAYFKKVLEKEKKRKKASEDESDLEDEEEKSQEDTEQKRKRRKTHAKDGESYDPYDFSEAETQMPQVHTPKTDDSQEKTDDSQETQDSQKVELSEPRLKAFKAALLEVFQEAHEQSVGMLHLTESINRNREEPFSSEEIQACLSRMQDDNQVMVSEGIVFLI

[2] = molecular target: T2, MCM3 (endogenous, human primary epidermal keratinocytes) (human (endogenous in primary epidermal keratinocytes)) (UniProt P25205); experiment: proximity ligation; Duolink PLA on fixed human primary epidermal keratinocytes, goat anti-MCM3 and mouse anti-Keap1, endogenous proteins
T2 sequence: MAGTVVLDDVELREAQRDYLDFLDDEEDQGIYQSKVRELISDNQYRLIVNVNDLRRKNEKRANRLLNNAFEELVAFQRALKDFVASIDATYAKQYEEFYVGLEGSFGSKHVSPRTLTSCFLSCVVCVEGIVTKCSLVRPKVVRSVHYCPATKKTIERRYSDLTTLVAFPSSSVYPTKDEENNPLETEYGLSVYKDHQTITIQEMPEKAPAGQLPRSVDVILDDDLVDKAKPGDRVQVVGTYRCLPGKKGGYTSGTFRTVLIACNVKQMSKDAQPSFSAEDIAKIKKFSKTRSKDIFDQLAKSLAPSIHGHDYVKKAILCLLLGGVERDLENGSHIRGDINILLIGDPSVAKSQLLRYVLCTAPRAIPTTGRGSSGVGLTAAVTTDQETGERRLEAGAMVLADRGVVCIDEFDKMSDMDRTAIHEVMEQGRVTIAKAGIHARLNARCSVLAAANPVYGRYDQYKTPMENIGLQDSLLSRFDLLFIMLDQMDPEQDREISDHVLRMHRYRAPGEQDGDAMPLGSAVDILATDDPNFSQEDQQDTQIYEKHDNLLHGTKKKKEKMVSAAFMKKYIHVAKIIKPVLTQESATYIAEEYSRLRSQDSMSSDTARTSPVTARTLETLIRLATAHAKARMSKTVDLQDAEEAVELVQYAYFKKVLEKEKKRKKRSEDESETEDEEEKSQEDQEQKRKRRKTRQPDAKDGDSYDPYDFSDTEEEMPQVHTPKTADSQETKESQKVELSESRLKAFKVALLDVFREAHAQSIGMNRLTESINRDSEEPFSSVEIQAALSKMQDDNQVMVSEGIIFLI

[3] = molecular target: strep-Keap1 (mouse, wild type, baculovirus) (mouse) (UniProt Q9Z2X8); experiment: pull-down; Strep-Tactin beads (strep-Keap1 as bait) on extracts of baculovirus co-infected Sf9 cells, 1 hr at 4 °C, washes with 250 mM KCl buffer pH 7.8, Western blot
[4] = molecular target: strep-Keap1 mutant R380A/R415A (mouse, baculovirus) (mouse) (UniProt Q9Z2X8); experiment: as above
[5] = molecular target: strep-Keap1 (mouse, wild type, baculovirus) (mouse) (UniProt Q9Z2X8); experiment: pull-down; tandem affinity (FLAG-MCM3 then strep-Keap1, and strep-Keap1 then FLAG-MCM3) from Sf9 cells expressing Keap1 and all six MCM2-7 subunits, 100 mM KCl buffer, Coomassie stained gels
[6] = molecular target: strep-Keap1 (mouse, wild type, baculovirus) (mouse) (UniProt Q9Z2X8); experiment: pull-down; tandem affinity (strep-Keap1 then FLAG-MCM3) from Sf9 cells expressing all six MCM2-7 subunits, Keap1 and MCM-BP, 100 mM KCl buffer, Coomassie stained gel, bands verified by mass spectrometry

MCM2 (mouse, baculovirus) (from UniProt P97310 1-904)
binding [1]: binds

Keap1 (endogenous, human primary epidermal keratinocytes) (from UniProt Q14145 1-624)
binding [2]: binds

B1: MCM6 (mouse, baculovirus) (protein, UniProt P97311 1-821)
chain: MDLAAAAEPGAGSQHPEVRDEVAEKCQKLFLDFLEEFQGSDGEIKYLQFAEELIRPERNTLVVSFADLEQFNQQLSTTIQEEFYRVYPYLCRALKTFVKDRKEIPFAKDFYVAFQDLPTRHKIRELTSSRIGLLTRISGQVVRTHPVHPELVSGTFLCLDCQTVIKDVEQQFKYTQPNICRNPVCANRKRFLLDTNKSRFVDFQKVRIQETQAELPRGSIPRSLEVILRAEAVESAQAGDRCDFTGALIVVPDVSKLSTPGARAETNSRVSGADGYETEGIRGLRALGVRDLSYRLVFLACHVAPTNPRFGGKELRDEEQTAESIKNQMTVKEWEKVFEMSQDKNLYHNLCTSLFPTIHGNDEVKRGVLLMLFGGVPKTTGEGTSLRGDINVCIVGDPSTAKSQFLKHVDEFSPRAVYTSGKASSAAGLTAAVVRDEESHEFVIEAGALMLADNGVCCIDEFDKMDMRDQVAIHEAMEQQTISITKAGVKATLNARTSILAAANPVSGHYDRSKSLKQNINLSAPIMSRFDLFFILVDECNEVTDYAIARRIVDLHSRIEESIDRVYSLDDIRRYLLFARQFKPKISKESEDFIVEQYKRLRQRDGSGVTKSSWRITVRQLESMIRLSESMARMHCCDEVQPKHVKEAFRLLNKSIIRVETPDVNLDQEEEIQMETDEGQGGVNGHADSPAPVNRFNGSSEDASQETVSKPSLRLGFAEYCRISNLIVLHLRKMEEEEDESALKRSELVNWYLKEIESEIDSEEELINKKTIIEKVVHRLTHYDHVLIELTQAGLKGSSEGSESYEEDPYLVVNPNYLLED
binding [1]: binds

B2: MCM5 (mouse, baculovirus) (protein, UniProt P49718 1-734)
chain: MSGFDDPGIFYSDSFGGDPGAEEGQARKSQLQRRFKEFLRQYRVGTDRTGFTFKYRDELKRHYNLGEYWIEVEMEDLASFDEELADHLHKQPAEHLQLLEEAAKEVADEVTRPRPAGDELLQDIQVMLKSDASPSSIRILKSDMMSHLVKIPGIIISASAVRAKATRISIQCRSCHNTLTNIAMRPGLEGYALPRKCNMDQAGRPKCPLDPYFIMPDKCKCVDFQTLKLQELPDAVPHGEMPRHMQLYCDRYLCDKVVPGNRVTIMGIYSIKKFGLNPSKGRDRVGVGIRSSYIRVLGIQVDTDGSGRSFAGSVSPQEEEEFRRLAALPNIYELISKSISPSIFGGMDMKKAIACLLFGGSRKRLPDGLTRRGDINLLMLGDPGTAKSQLLKFVEKCSPIGVYTSGKGSSAAGLTASVIRDPSSRNFIMEGGAMVLADGGVVCIDEFDKMREDDRVAIHEAMEQQTISIAKAGITTTLNSRCSVLAAANSVFGRWDETKGEDNIDFMPTILSRFDMIFIVKDEHNEERDMMLAKHVMTLHVSALTQTQAVEGEIDLAKMKKFIAYCRARCGPRLSAEAAEKLKNRYIIMRSGARQHERDSDRRSSIPITVRQLEAIVRIAEALSKMKLQPFATEADVEEALRLFQVSTLDAALSGNLSGVEGFTTQEDQEMLSRIEKQLKRRFAIGSQVSEHSIVQDFTKQKYPEHAIRKVLQLMLRRGEIQHRMQRKVLYRLK
binding [1]: binds

B3: FLAG-MCM3 (mouse, wild type, baculovirus) (natural protein, UniProt P25206 1-812, looked up)
chain: MAGTVVLDDVELREAQRDYLDFLDDEEDQGIYQNKVRELISDNQYRLIVSVNDLRRKNEKRANRLLNNAFEELVAFQRALKDFVASIDATYAKQYEEFYIGLEGSFGSKHVSPRTLTSCFLSCVVCVEGIVTKCSLVRPKVVRSVHYCPATKKTIERRYSDLTTLVAFPSSSVYPTKDEENNPLETEYGLSVYKDHQTITIQEMPEKAPAGQLPRSVDVILDDDLVDKVKPGDRIQVVGTYRCLPGKKGCYTSGTFRTVLIACNVKQMSKDIQPAFSADDIAKIKKFSKTRSKDVFEQLARSLAPSIHGHDYVKKAILCLLLGGVERELENGSHIRGDINILLIGDPSVAKSQLLRYVLCTAPRAIPTTGRGSSGVGLTAAVTTDQETGERRLEAGAMVLADRGVVCIDEFDKMSDMDRTAIHEVMEQGRVTIAKAGIHARLNARCSVLAAANPVYGRYDQYKTPMENIGLQDSLLSRFDLLFIMLDQMDPEQDREISDHVLRMHQYRAPGEQDGDALPLGSSVDILATDDPDFTQDDQQDTRIYEKHDSLLHGTKKKKEKMVSAAFMKKYIHVAKIIKPTLTQESAAYIAEEYSRLRSQDSMSSDTARTSPVTARTLETLIRLATAHAKARMSKTVDLQDAEEAVELVQYAYFKKVLEKEKKRKKASEDESDLEDEEEKSQEDTEQKRKRRKTHAKDGESYDPYDFSEAETQMPQVHTPKTDDSQEKTDDSQETQDSQKVELSEPRLKAFKAALLEVFQEAHEQSVGMLHLTESINRNREEPFSSEEIQACLSRMQDDNQVMVSEGIVFLI
notes: MCM3, mouse; cDNA cloned into pFastBac1; also called WT MCM3; source: Sf9, baculovirus infected, in extract; not shown: FLAG, N-terminal, kept
binding [3]: binds | binding [4]: no binding | binding [5]: binds | binding [6]: binds

B4: MCM4 (mouse, baculovirus) (protein, UniProt P49717 1-862)
chain: MSSPASTPSRRSSRRGRVTPTQSLRSEESRSSPNRRRRGEDSSTGELLPMPTSPGADLQSPPAQNALFSSPPQMHSLAIPLDFDVSSPLTYGTPSSRVEGTPRSGVRGTPVRQRPDLGSARKGLQVDLQSDGAAAEDIVPSEQSLGQKLVIWGTDVNVATCKENFQRFLQCFTDPLAKEEENVGIDITQPLYMQQLGEINITGEPFLNVNCEHIKSFSKNLYRQLISYPQEVIPTFDMAVNEIFFDRYPDSILEHQIQVRPFNALKTKSMRNLNPEDIDQLITISGMVIRTSQLIPEMQEAFFQCQVCAHTTRVEIDRGRIAEPCSCVHCHTTHSMALIHNRSFFSDKQMIKLQESPEDMPAGQTPHTIVLFAHNDLVDKVQPGDRVNVTGIYRAVPIRVNPRVSNVKSVYKTHIDVIHYRKTDAKRLHGLDEEAEQKLFSEKRVKLLKELSRKPDIYERLASALAPSIYEHEDIKKGILLQLFGGTRKDFSHTGRGKFRAEINILLCGDPGTSKSQLLQYVYNLVPRGQYTSGKGSSAVGLTAYVMKDPETRQLVLQTGALVLSDNGICCIDEFDKMNESTRSVLHEVMEQQTLSIAKAGIICQLNARTSVLAAANPIESQWNPKKTTIENIQLPHTLLSRFDLIFLMLDPQDEAYDRRLAHHLVSLYYQSEEQVEEEFLDMAVLKDYIAYAHSTIMPRLSEEASQALIEAYVNMRKIGSSRGMVSAYPRQLESLIRLAEAHAKVRFSNKVEAIDVEEAKRLHREALKQSATDPRTGIVDISILTTGMSATSRKRKEELAEALRKLILSKGKTPALKYQQLFEDIRGQSDTAITKDMFEEALRALADDDFLTVTGKTVRLL
binding [1]: binds
